Measurements as given in paper PMC10817901.
Where two headings read alike, the source gives them in different places. Results are given in words; binding and its absence hold for the method and conditions named. Some binding calls cover weakened binding; strength is not graded here.

By UniProt entry, the sequences of proteins in these tests, tags left out.
UniProt P35129: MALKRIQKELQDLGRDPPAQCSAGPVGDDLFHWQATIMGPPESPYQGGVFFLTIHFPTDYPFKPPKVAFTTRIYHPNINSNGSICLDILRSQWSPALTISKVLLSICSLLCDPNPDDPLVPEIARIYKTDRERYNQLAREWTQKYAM
UniProt O45495: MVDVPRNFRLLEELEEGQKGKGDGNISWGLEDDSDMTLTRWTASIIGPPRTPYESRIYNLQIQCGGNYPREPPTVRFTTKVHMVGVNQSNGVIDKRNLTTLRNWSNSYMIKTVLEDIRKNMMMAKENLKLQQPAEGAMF

T1: C38S-substituted MARC-3N (C. elegans) (UniProt Q93227)
T1 sequence: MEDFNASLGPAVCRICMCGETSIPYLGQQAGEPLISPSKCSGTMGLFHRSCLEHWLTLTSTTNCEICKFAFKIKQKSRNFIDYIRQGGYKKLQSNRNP

T2: MARC-3 N-terminal cytoplasmic region (MARC-3N, 1-98 aa) (C. elegans) (UniProt Q93227)
T2 sequence: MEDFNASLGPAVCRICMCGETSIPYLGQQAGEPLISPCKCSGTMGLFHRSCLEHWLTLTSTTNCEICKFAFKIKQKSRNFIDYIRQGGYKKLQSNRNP

T3: MARC-3 C-terminal cytoplasmic region (MARC-3C, 179-431 aa) (C. elegans) (UniProt Q93227)
T3 sequence: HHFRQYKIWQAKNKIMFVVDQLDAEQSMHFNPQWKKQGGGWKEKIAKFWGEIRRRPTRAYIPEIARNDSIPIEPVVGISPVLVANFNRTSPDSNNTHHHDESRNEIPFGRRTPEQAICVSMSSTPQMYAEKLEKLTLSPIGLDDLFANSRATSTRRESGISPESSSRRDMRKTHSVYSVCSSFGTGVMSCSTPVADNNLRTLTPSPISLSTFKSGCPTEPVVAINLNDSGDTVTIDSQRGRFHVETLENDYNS


Key:
Assay in all cases: two-hybrid; DupLEX-A Yeast Two-Hybrid System; MARC-3 regions as bait (pEG202), other proteins as prey (pJG4-5); yeast EGY48 with the lacZ reporter pSH18-34; X-gal plates
[1] = molecular target: T1, C38S-substituted MARC-3N (C. elegans)
[2] = molecular target: T2, MARC-3 N-terminal cytoplasmic region (MARC-3N, 1-98 aa) (C. elegans)
[3] = molecular target: T3, MARC-3 C-terminal cytoplasmic region (MARC-3C, 179-431 aa) (C. elegans)
[4] = molecular target: T2, MARC-3 N-terminal cytoplasmic region (MARC-3N, 1-98 aa) (C. elegans); remark: listed apart in the source
[5] = molecular target: T1, C38S-substituted MARC-3N (C. elegans); remark: listed apart in the source

Molecule	binding [1]	binding [2]	binding [3]	binding [4]	binding [5]
EGG-4 (full length, 1-753 aa) (protein, UniProt O01767 1-753) MALNSEVMFREQINAMRSQAGRKRATSLQSFCSGNTDDSSADSTDNMDMMVDYPQQKGVSCMRARFNSESTLSKSFRKKVKKLAQKDRRSKERLNGNSEEDAIEVPRGAPSTYAAPSKLRKSKALDCLVSEKPKDEGRREDSGHGADIEMAKGHFNNVRMKVFAARTAMQVEPALVMKTRKALEMKNAVLENHQSPGAFSLHAAYKIAASAESRVGSITPCNKKVTKEAMANLIRSSYDDTEITQELLFSSKFDTKWKGRYTDIYMRRDENGKKPKRPVNGQGWVMPLKSICEKFGINSTFFTNHRIDLKSARDQVLLMRLLSHDQTSTWISDIHPEAVKNETMAEYLLRELDASTMQKRVQAFKANVLADRDRVRVAGQFYNNIRIGKRMFGAARKAKYLSTIIGGMERRFEILENSVNHIPFTHSASDNNQEKCRNPRVHCKDSTRIALQFPRGQYLGDFIHANRISGKPLFNEFIMTQAPMKNTVDDFWRMVWQEEVPYIVMLTSRKEPERCEYYWPKSPSDPAVTVPGGLRIENFGVYQAPDPLFRVTHLRLIGPDREERHVEHWQGDVNNSSNMYSPLNILRLLRNASKPVVIHDHLGVSRAACLVAAEIAICSLLRGPTYKYPVQRAVQFLRQRRPFSIETPMQYIFVHRLVAFFFRDVIGSAKELDVDYERWLQERSERMFLDDLAAPIPGYRLLSPRADPDIVRMVGRPERPNYRREAPDCVGEMPNKVATVDGILSPAKSVFEF			no binding	no binding	
CHS-1 (the largest central cytoplasmic region, 418-836 aa) (domain or fragment, UniProt G5ECD6 418-836) RLVRQRYFDTNEEIISSMPPVCNGLCIEQSLVVFQHSLNRQEKTMLTEEEDISDENDELRIRNDEVDRVSTVYGCATMWHETETEMRQVLRSILKLDVDHATRMNNKKANELRYRLEGHIFFDDAWEDVEEDGIEKRQPNEYFNMFFDLLNEMTGERLNEEGKMETRILVNTPYGGRLVVKLPSGTLLFVHLKDKKMIRHKKRWSQVMYMYYLLGHRIMDCPLSIEDRQQMADNTFILAIDGDSKFEPDALLRLLHLMNAKSDIGCACGRIHPIGNGIMVWYQKFEYAIAHWFQKAAEHVFGCVLCAPGCFSLFRASALMDDNIMHKYTKTASEPRHYVQYDQGEDRWLSTLLLKQGYRIEYAAASDAETYAPEGFEEFFNQRRRWTPSSIANTVDLLMDYKRASENNDAISYAYIAYQ			no binding	no binding	
EGG-3 (full length, 1-555 aa) (protein, UniProt Q20402 1-555) MRTSDSHLPLSNLARSDSIEFKDAVINEKWVHSANRRKGHLTPKAPEKKSGWFGGQKSEEELLMERVEQHELEELQTFIAQKLFRVDGIICDEETRILLVEKLMNAKEYPTINHDELAHRYGSSMAGWLRDRLVPSMSDCSSVLQRAAAEFYQNKMSDPLCNWGQLNPEHVSMVAARIAKFSEEMSSKVKWSLLVEPGKFSCHLTEFVQEFNRLDRMFVSNELSDEESLQTAFNANYLTKARSKMVPCAEFSRVKLNDGLGRLDDRNELRNGMFSDEHEFLQEEGYTAKSTYGTTDFIHANYVKGGPLLNTFICAQAPLKNTQEDFWRMVFQEKCQFIVMLNSAVDSSTLGPLDSANRNHCPYYWPRAENESLRFGSFHITCMKVDSKADPLFTITKLKVQKVGGNLLDAEFDEELFLEHWQWDWQYLGDVHWPFRVLRKARQLSTPTIVQCIDGCSKSGTLVSIETALMHFIRGSPITKSLILQSCVFVRLQRRLSVSSVLLYLFIYRVILRWIEPYVNKWYHRAALGLRFKSIGFIQKYNAMIQEFSRITPAY			no binding	binds	no binding
MSQQAGNAQRGRFDEEPMSLGEKISHRMDQLKEIVSSSCPCAGKFPPVA (domain or fragment, UniProt Q21629 1-49) [EGG-2 (the N-terminal cytoplasmic region, 1-49 aa)]			no binding	no binding	
MSQQPGSARRVNFPEEPMTLGEKFSHRMDQLKEIIADGGCSRAAKCVS (domain or fragment, UniProt Q09967 1-48) [EGG-1 (the N-terminal cytoplasmic region, 1-48 aa)]			no binding	no binding	

Continued, values first:

binding [1]	binding [2]	binding [3]	binding [4]	binding [5]	Molecule
no binding	binds				LET-70 (full length, 1-147 aa) (from UniProt P35129 1-147) (enzyme)
	no binding				UEV-1 (full length, 1-139 aa) (from UniProt O45495 1-139)
		no binding	no binding		EGG-5 (full length, 1-753 aa) (protein, UniProt O61789 1-753) MALNSEVMFREQINAMRSQAGRKRATSLQSFCSGNTDDSSADSTDNMDMMVDYPQQKGVSCMRARFNSESTLSKSFRKKVKKLAQKDRRSKERLNGNSEEDAIEVPRGAPSTYAAPSKLRKSKALDCLVSEKPKDEGRSEDSGHGADIEMAKGHFNDVRMKVFAARTAMQVEPALVMKTRKALEMKNAVLENHQSPGAFSLHAAYKIAASAESRVGSITPCNKKVTKEAMANLIRSSYDDTEITQELLFSSKFDSKWKGRYTDIYMRRDENGKKPKRPVNGQGWVMPLKSICEKFGINSTFFTNHRIDLKSARDQVLLMRLLSHDQTSTWISDIHPEAVKNETLAEYLLRELDASTMQKRVQAFKANVLADRDRVRVAGQFYNNIRIGKRMFGAARKAKYLSTIIGGMERRFEILENSVNHIPFTHSASDNNQEKCRNPRVHCRDSTRIALQFPRGQYLGDFIHANRISGKPLFNEFIMTQAPMKNTVDDFWRMVWQEEVPYIVMLTSRKEPERCEYYWPKSPSDPAVTVPGGLRIENFGVYQAPDPLFRVTHLRLIGPDREERHVEHWQGDVNNSSNMYSPLNILRLLRNASKPVVIHDHLGVSRAACLVAAEIAICSLLRGPTYKYPVQRAVQFLRQRRPFSIETPMQYIFVHRLVAFFFRDVIGSAKELDVDYERWLQERSERMFLDDLAAPIPGYRLLSPRADPDIVRMVGRPERPNYRREAPDCVGEMPNKVAAVDGILSPAKSVFEF
			no binding		UBC-13 (full length, 1-151 aa) (enzyme, UniProt Q95XX0 1-151) MAGQLPRRIIKETQRLLADPVPGISANPDESNARYFHVMIAGPDDSPFAGGVFKLELFLPEEYPMAAPKVRFMTKIYHPNIDKLGRICLDILKDKWSPALQIRTVLLSIQALLSAPNPEDPLATDVAEQWKTNEAEAIKTAKQWTMNYAQA
